The other results are listed elsewhere or left out. Single values of this set are uncertain. Values with irradiation are relative to irradiated vehicle.
test system: A549-Dual; test: NF-kB reporter (SEAP) activity, viability-corrected, relative to vehicle (fold change vs vehicle); higher = more activation of STING-IRF / NF-kB immune response reporter; conditions: 10 µM; irradiation: none
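Also: viability correction based on the alamar blue assay, with concentrations leaving 10% survival or less dropped.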

| SMILES | NF-kB reporter |
| --- | --- |
| CC(=O)NC1C(OC2C(C(=O)O)OC(OC3C4COC(O4)C(NS(=O)(=O)O)C3O)C(O)C2O)OC(CO)C(OC2CC(C(=O)O)C(OC3OC(COS(=O)(=O)O)C(OC4OC(C(=O)O)=CC(O)C4O)C(O)C3NC(C)=O)C(O)C2O)C1C (configuration not stated) [Enoxaparin sodium] | 0.596 |
| COc1cc(O)c(C(=O)Nc2nc(C(=O)NCCN(C(C)C)C(C)C)cs2)cc1OC.Cl.O.O.O [Acotiamide hydrochloride] | 1.23 |
| CS(=O)(=O)c1ccc(C(O)C(CF)NC(=O)C(Cl)Cl)cc1 (configuration not stated) [Florfenicol] | 0.855 |
| N=C(N)NCCCC(N)C(=O)O (racemic) [DL-Arginine] | 0.674 |
| CCCN1CC(C)C(O)C(C)(O)C(CC)OC(=O)C(C)C(OC2CC(C)(OC)C(O)C(C)O2)C(C)C(OC2OC(C)CC(N(C)C)C2O)C(C)(O)CC1C (configuration not stated) [Gamithromycin] | 0.594 |
| CC(=O)OC(C)C[N+](C)(C)C.[Cl-] (configuration not stated) [Methacholine chloride] | 1.31 |
| CC(C)(C)C(O)/C=C/c1ccc2c(c1)OCO2 (configuration not stated) [Stiripentol] | 0.955 |
| [OH][Al]([OH])[OH] [Aluminium hydroxide] | 0.893 |
| COc1cc2c(cc1OC)-c1cc3ccc(OC)c(OC)c3c[n+]1CC2 [Palmatine] | 0.92 |
| Cl.c1ccc(CC2=NCCN2)cc1 [Tolazoline HCl] | 0.864 |
| C#CCNC1CCc2ccccc21.CS(=O)(=O)O (configuration not stated) [Rasagiline Mesylate] | 1.01 |
| Cl.N=C(N/N=C/c1ccc(Cl)cc1)N/N=C/c1ccc(Cl)cc1 [Robenidine Hydrochoride] | 1.02 |
| CCC1OC(=O)C(C)C(OC2CC(C)(OC)C(O)C(C)O2)C(C)C(OC2OC(C)CC(N(C)C)C2O)C(C)(O)CC(C)C(=O)C(C)C(O)C1(C)O.N#CS (configuration not stated) [Erythromycin thiocyanate] | 0.889 |
| Cl.OC(c1cc(C(F)(F)F)nc2c(C(F)(F)F)cccc12)C1CCCCN1 (configuration not stated) [Mefloquine HCl] | 0.723 |
| OCC1OC(OC2(CO)OC(CO)C(O)C2O)C(O)C(O)C1O (configuration not stated) [Inulin] | 0.987 |
| CC1c2cccc(O)c2C(=O)C2=C(O)C3(O)C(=O)C(C(N)=O)=C(O)C(N(C)C)C3C(O)C21 (configuration not stated) [Doxycycline] | 0.819 |

| SMILES | NF-kB reporter |
| --- | --- |
| Oc1c(I)cc(Cl)c2cccnc12 [Clioquinol] | 0.826 |
| CCCCCC(O)/C=C/C1C(O)CC(O)C1C/C=C\CCCC(=O)O.NC(CO)(CO)CO (configuration not stated) [Dinoprost tromethamine] | 0.791 |
| COc1ccccc1O [Guaiacol] | 1.01 |
| CS(=O)(=O)CCNCc1ccc(-c2ccc3ncnc(Nc4ccc(OCc5cccc(F)c5)c(Cl)c4)c3c2)o1 [Lapatinib] | 0.879 |
| CC(=O)Oc1ccc(C(=C2CCCCC2)c2ccc(OC(C)=O)cc2)cc1 [Cyclofenil] | 0.738 |
| COc1cc(C=O)ccc1O [Vanillin] | 0.783 |
| Cc1ccsc1C(=CCCN1CCCC(C(=O)O)C1)c1sccc1C (configuration not stated) [Tiagabine] | 1.14 |
| COC(=O)NC(C(=O)NC(Cc1ccccc1)C(O)CN(Cc1ccc(-c2ccccn2)cc1)NC(=O)C(NC(=O)OC)C(C)(C)C)C(C)(C)C (configuration not stated) [Atazanavir] | 0.852 |
| CCOC(=O)C(C)(C)Oc1ccc(Cl)cc1 [Clofibrate] | 0.748 |
| Cl.Cl.OCCOCCN1CCN(C(c2ccccc2)c2ccc(Cl)cc2)CC1 (configuration not stated) [Hydroxyzine 2HCl] | 0.821 |
| CC1(C)SC2C(NC(=O)C(N)c3ccccc3)C(=O)N2C1C(=O)[O-].[Na+] (configuration not stated) [Ampicillin sodium] | 0.871 |
| Cn1c(=O)c2c(ncn2CC(O)CO)n(C)c1=O (configuration not stated) [Dyphylline] | 1.17 |
| CCn1cc(C(=O)O)c(=O)c2ccc(C)nc21 [Nalidixic acid] | 1.06 |
| Cl.NC(CO)C(=O)NNCc1ccc(O)c(O)c1O (configuration not stated) [Benserazide HCl] | 1.12 |
| CCCCCCCCCCCCCC(=O)O [Myristic Acid] | 0.839 |
| O=C([O-])CCSCC1OC2OC3C(CSCCC(=O)[O-])OC(OC4C(CSCCC(=O)[O-])OC(OC5C(CSCCC(=O)[O-])OC(OC6C(CSCCC(=O)[O-])OC(OC7C(CSCCC(=O)[O-])OC(OC8C(CSCCC(=O)[O-])OC(OC9C(CSCCC(=O)[O-])OC(OC1C(O)C2O)C(O)C9O)C(O)C8O)C(O)C7O)C(O)C6O)C(O)C5O)C(O)C4O)C(O)C3O.[Na+].[Na+].[Na+].[Na+].[Na+].[Na+].[Na+].[Na+] (configuration not stated) [Sugammadex (sodium)] | 0.871 |

Source: the supplement of paper PMC9174493
